{"source": "paper PMC4336329", "about": "(PLoS ONE, 2015)", "note": "The whole screen tested about 310,000 compounds, of which about 14,000 (4.5%) showed an effect of 50% or more. Effects have a minus sign here. This is one part of the list.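 Further: peak tail current of the secondary pulse compared with the same well before compound.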", "data": [{"target": "human ether-à-go-go-related gene (hERG) potassium channel (human, UniProt Q12809)", "sequence (Q12809 whole entry, looked up)": "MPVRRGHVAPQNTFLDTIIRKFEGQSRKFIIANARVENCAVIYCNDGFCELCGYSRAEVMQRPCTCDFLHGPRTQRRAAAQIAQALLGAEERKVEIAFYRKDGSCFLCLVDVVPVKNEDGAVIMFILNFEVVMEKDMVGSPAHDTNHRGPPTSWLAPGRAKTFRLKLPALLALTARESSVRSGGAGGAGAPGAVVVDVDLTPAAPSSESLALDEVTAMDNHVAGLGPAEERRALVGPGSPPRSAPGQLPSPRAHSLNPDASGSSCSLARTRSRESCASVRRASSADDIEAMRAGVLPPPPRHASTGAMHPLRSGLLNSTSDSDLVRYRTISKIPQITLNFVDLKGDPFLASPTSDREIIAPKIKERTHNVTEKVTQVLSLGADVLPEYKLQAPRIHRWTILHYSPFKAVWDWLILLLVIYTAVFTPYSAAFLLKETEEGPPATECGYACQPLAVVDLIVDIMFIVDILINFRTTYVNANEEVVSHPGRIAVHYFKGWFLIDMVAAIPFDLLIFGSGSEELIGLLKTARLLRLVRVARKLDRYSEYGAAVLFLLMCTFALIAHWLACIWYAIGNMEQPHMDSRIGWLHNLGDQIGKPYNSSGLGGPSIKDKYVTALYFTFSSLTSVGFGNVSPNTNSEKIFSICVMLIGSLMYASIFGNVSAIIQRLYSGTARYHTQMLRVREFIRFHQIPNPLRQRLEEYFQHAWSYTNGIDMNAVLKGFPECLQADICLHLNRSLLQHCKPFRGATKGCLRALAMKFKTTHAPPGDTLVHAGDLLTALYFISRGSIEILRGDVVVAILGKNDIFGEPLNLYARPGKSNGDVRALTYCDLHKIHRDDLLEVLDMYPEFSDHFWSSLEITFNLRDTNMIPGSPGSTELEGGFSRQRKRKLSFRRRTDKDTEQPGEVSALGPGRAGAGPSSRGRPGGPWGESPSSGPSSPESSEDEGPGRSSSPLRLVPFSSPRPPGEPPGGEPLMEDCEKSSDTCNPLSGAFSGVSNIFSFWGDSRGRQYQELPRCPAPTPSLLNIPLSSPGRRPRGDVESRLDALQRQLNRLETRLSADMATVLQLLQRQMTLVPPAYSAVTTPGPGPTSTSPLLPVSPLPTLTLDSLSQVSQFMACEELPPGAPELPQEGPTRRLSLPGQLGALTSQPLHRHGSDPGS", "test": "primary screen, population patch clamp on CHO cells stably expressing hERG", "units": {"hERG current change (%, negative = inhibition) at 10uM": "%"}, "values": [{"smiles": "Cc1nccc2c1[nH]c1ccccc12", "hERG current change (%, negative = inhibition) at 10uM": 2.16}, {"smiles": "CCN(CC)S(=O)(=O)c1cccc(-c2n[nH]c(=S)n2/N=C/c2ccc(OC(F)F)cc2)c1", "hERG current change (%, negative = inhibition) at 10uM": 0.89}, {"smiles": "O=C(Nc1cccnc1)c1scc2c1OCCO2", "hERG current change (%, negative = inhibition) at 10uM": 13.2}, {"smiles": "CCOC(=O)c1cccc(S(=O)(=O)N(CCO)Cc2cc3cc(OC)ccc3[nH]c2=O)c1", "hERG current change (%, negative = inhibition) at 10uM": 5.46}, {"smiles": "CCNc1nc(-c2ccc(Cl)cc2)cs1", "hERG current change (%, negative = inhibition) at 10uM": 1.78}, {"smiles": "COC(=O)c1ccc(-c2ccc(/C=N/NC(=O)Cc3nnc(N)s3)o2)cc1", "hERG current change (%, negative = inhibition) at 10uM": 12.5}, {"smiles": "CCCN1CCN(C(=O)CN2C(=O)CC(C)(C)S(=O)(=O)c3ccccc32)CC1", "hERG current change (%, negative = inhibition) at 10uM": 2.55}, {"smiles": "COc1ccnc(CS(=O)c2nc3cc(OC(F)F)ccc3[n-]2)c1OC.[Na+]", "note": "(centres unmarked)", "hERG current change (%, negative = inhibition) at 10uM": -45.1}, {"smiles": "C/C(Cc1ccccc1)=N\\NC(=O)CNC(=O)COc1ccccc1", "hERG current change (%, negative = inhibition) at 10uM": 8.45}, {"smiles": "O=C(NCC1CCCO1)c1cccc(F)c1", "note": "(centres unmarked)", "hERG current change (%, negative = inhibition) at 10uM": 10.3}, {"smiles": "Cc1nc(N2CCN(S(=O)(=O)c3ccccc3C#N)CC2)c2c(-c3ccccc3)csc2n1", "hERG current change (%, negative = inhibition) at 10uM": 2.68}, {"smiles": "Cn1c(SCc2nc3ccccc3[nH]2)nnc1-c1cccs1", "hERG current change (%, negative = inhibition) at 10uM": -28.7}, {"smiles": "O=C(C1Cc2ccccc2CN1S(=O)(=O)c1ccc(F)cc1)N1CCCCC1", "note": "(centres unmarked)", "hERG current change (%, negative = inhibition) at 10uM": -13.2}, {"smiles": "Clc1cccc(Cl)c1Cn1cnc2c(N3CCCCCC3)ncnc21", "hERG current change (%, negative = inhibition) at 10uM": -6.44}, {"smiles": "CC1Oc2ccccc2N(CC(=O)c2ccccc2)C1=O", "note": "(centres unmarked)", "hERG current change (%, negative = inhibition) at 10uM": -5.02}, {"smiles": "Cc1ccn2cc(-c3cccc(NC(=O)c4cccs4)c3)nc2c1", "hERG current change (%, negative = inhibition) at 10uM": -48.7}, {"smiles": "CCCCC(=O)Nc1ccc(NC(=O)C2CC2)nc1", "hERG current change (%, negative = inhibition) at 10uM": 4.98}, {"smiles": "CN(CC(=O)NCc1ccncc1)S(=O)(=O)c1ccc2ccccc2c1", "hERG current change (%, negative = inhibition) at 10uM": -22.9}, {"smiles": "Cc1nc(C(F)(F)F)nc(Nc2ccc(Br)cc2)c1C#N", "hERG current change (%, negative = inhibition) at 10uM": 12.2}, {"smiles": "Cc1c(OCc2ccc([N+](=O)[O-])cc2)ccc2c3c(c(=O)oc12)CCC3", "hERG current change (%, negative = inhibition) at 10uM": 0.652}, {"smiles": "COc1ccc(C/C(C)=N/NC(=O)c2cc(C)oc2C)cc1", "hERG current change (%, negative = inhibition) at 10uM": 4.56}, {"smiles": "Cc1ccccc1-n1c(SCc2csc(Nc3ccccc3)n2)nnc1-c1cccnc1", "hERG current change (%, negative = inhibition) at 10uM": -6.71}, {"smiles": "COc1ccc(-n2ncc3c(=O)n(CC(=O)N4c5ccccc5CC4C)cnc32)cc1", "note": "(centres unmarked)", "hERG current change (%, negative = inhibition) at 10uM": -1.43}, {"smiles": "CC1=Nc2ccc(Br)cc2C(c2ccccc2)N1CC(=O)NN", "note": "(centres unmarked)", "hERG current change (%, negative = inhibition) at 10uM": -26.3}, {"smiles": "O=C(O)CC(NC(=O)C(c1ccccc1)c1ccccc1)c1ccco1", "note": "(centres unmarked)", "hERG current change (%, negative = inhibition) at 10uM": 11.8}, {"smiles": "Cc1cc(NC(=O)CSc2nc(=O)n3cc(Cl)ccc3n2)no1", "hERG current change (%, negative = inhibition) at 10uM": 2.75}, {"smiles": "C=CCSc1nnc(NC(=O)CSc2nc3ccccc3[nH]2)s1", "hERG current change (%, negative = inhibition) at 10uM": 9.74}, {"smiles": "Cc1ccc(NC(=O)COC(=O)/C=C/c2ccc(Br)o2)cc1S(=O)(=O)N(C)C", "hERG current change (%, negative = inhibition) at 10uM": -0.4}, {"smiles": "COc1cccc(CC(=S)N2CCOCC2)c1", "hERG current change (%, negative = inhibition) at 10uM": 1}, {"smiles": "C/C(=N\\O)C1CC(CC(=O)O)C1(C)C", "note": "(centres unmarked)", "hERG current change (%, negative = inhibition) at 10uM": 12.9}, {"smiles": "CCCS(=O)(=O)C/C(N)=N/OC(=O)c1ccccc1Cl", "hERG current change (%, negative = inhibition) at 10uM": 5.28}, {"smiles": "CCOC(=O)Cn1nnnc1CN(Cc1ccccc1)Cc1cc2cc(CC)ccc2[nH]c1=O", "hERG current change (%, negative = inhibition) at 10uM": -11.2}, {"smiles": "CC[C@@H]1[C@H]2CCCC(=O)N3CC[C@@H](C[C@@H]1Nc1ccccc1)[C@@H]23", "hERG current change (%, negative = inhibition) at 10uM": -3.88}, {"smiles": "O=C(Nc1ccccc1N1CCN(c2ccccc2)CC1)c1ccccc1", "hERG current change (%, negative = inhibition) at 10uM": 8.61}, {"smiles": "COc1ccc(F)cc1-c1nc(N)nc(N)n1", "hERG current change (%, negative = inhibition) at 10uM": 23.5}, {"smiles": "Br.N=c1n(CCN2CCCCC2)c2ccccc2n1CC(=O)c1cccs1", "hERG current change (%, negative = inhibition) at 10uM": -25.2}, {"smiles": "COc1ccc(-c2nc(CSCC(=O)N3CCN(C4CCCCC4)CC3)c(C)o2)cc1OC", "hERG current change (%, negative = inhibition) at 10uM": -34.4}, {"smiles": "Cc1cccc(S(=O)(=O)N2CN(Cc3ccco3)c3nc4ccccc4nc32)c1", "hERG current change (%, negative = inhibition) at 10uM": -16.7}, {"smiles": "COc1cc(-c2nnc(SCC3(c4ccc(Br)cc4)OCCO3)o2)cc(OC)c1OC", "hERG current change (%, negative = inhibition) at 10uM": -9.92}, {"smiles": "O=S(=O)(NCc1ccccc1F)c1cccc(S(=O)(=O)N2CCOCC2)c1", "hERG current change (%, negative = inhibition) at 10uM": -14.6}, {"smiles": "Cc1noc(C)c1S(=O)(=O)N1CCCC(C(=O)NC2CCCCC2)C1", "note": "(centres unmarked)", "hERG current change (%, negative = inhibition) at 10uM": 13.5}, {"smiles": "CCCN(C(=O)C1CCN(S(=O)(=O)c2ccc(OC)c(OC)c2)CC1)C1CCS(=O)(=O)C1", "note": "(centres unmarked)", "hERG current change (%, negative = inhibition) at 10uM": 13.4}, {"smiles": "Cc1ccc(S(=O)(=O)N2CCN(C(C)C(=O)N3CCCc4ccccc43)CC2)cc1", "note": "(centres unmarked)", "hERG current change (%, negative = inhibition) at 10uM": -18.9}, {"smiles": "Cc1ccc(-c2nc(N3CCOCC3)sc2C(=O)N2CCOCC2)cc1", "hERG current change (%, negative = inhibition) at 10uM": -4.14}]}]}
